± gives the standard deviation of the averaged measurements. Restriction of a single-cycle SIVsab GFP reporter by TRIM5α v1-loop variants in CRFK cells. Human variants: read share among cells still uninfected after two challenges over input, higher = gained restriction. Rhesus variants: share among infected cells over input, higher = lost restriction. Reporter dose not given per row. No active / inactive call per row; the paper calls a change when both replicates lie above its controls (mean + 2 SD of stop or wild-type variants, or the top frameshift score). Residues outside the varied loop are taken from Swiss-Prot. The paper reads the human single-substitution scores as noise; they and the rhesus combinations repeat poorly (rank correlation 0.3 to 0.4), indel scores repeat only for the top variants, rhesus substitutions well (0.9).
Test system: SIVsab (simian immunodeficiency virus of sabaeus monkeys), single-cycle GFP reporter, in CRFK cells
Assay: enrichment among infected cells over input (fold); higher = weaker restriction
Conditions: library: human / rhesus combinations
Description: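 Pools of CRFK cells expressing variants of the TRIM5α v1 loop were challenged with the single-cycle reporter, sorted by GFP and sequenced; mean of two replicates.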

Q: With “MASGILLNVKEEVTCPICLELLTEPLSLHCGHSFCQACITANHKKSMLYKEGERSCPVCRISYQPENIQPNRHVANIVEKLREVKLSPEEGQKVDHCARHGEKLLLFCQEDSKVICWLCERSQEHRGHHTFLMEEVAQEYHVKLQTALEMLRQKQQEAEKLEADIREEKASWKIQIDYDKTNVSADFEQLREILDWEESNELQNLEKEEEDILKSLTKSETEMVQQTQYMRELISELEHRLQGSMMDLLQGVDGIIKRIENMTLKKPKTFHKNQRRVFRAPDLKGMLDMFRELTDARRYWVDVTLAPNNISHAVIAEDKRQVSSRNPQIMYGAPGTLFTFPTFTNFNYCTGVLGSQSITSGKHYWEVDVSKKSAWILGVCAGFQSDAMYNIEQNENYQPKYGYWVIGLQEGVKYSVFQDGSSHTPFAPFIVPLSVIICPDRVGVFVDYEACTVSFFNITNHGFLIYKFSQCSFSKPVFPYLNPRKCTVPMTLCSPSS [rhesus TRIM5α, 332-344 = GAPGTLFTFPTFT]” as the sequence, how does the enrichment read?
A: Its enrichment is 0.272 ± 0.069.

Q: How did the enrichment turn out when “MASGILLNVKEEVTCPICLELLTEPLSLHCGHSFCQACITANHKKSMLYKEGERSCPVCRISYQPENIQPNRHVANIVEKLREVKLSPEEGQKVDHCARHGEKLLLFCQEDSKVICWLCERSQEHRGHHTFLMEEVAQEYHVKLQTALEMLRQKQQEAEKLEADIREEKASWKIQIDYDKTNVSADFEQLREILDWEESNELQNLEKEEEDILKSLTKSETEMVQQTQYMRELISELEHRLQGSMMDLLQGVDGIIKRIENMTLKKPKTFHKNQRRVFRAPDLKGMLDMFRELTDARRYWVDVTLAPNNISHAVIAEDKRQVSSRNPQIMYQAPGTRYTFPSFTNFNYCTGVLGSQSITSGKHYWEVDVSKKSAWILGVCAGFQSDAMYNIEQNENYQPKYGYWVIGLQEGVKYSVFQDGSSHTPFAPFIVPLSVIICPDRVGVFVDYEACTVSFFNITNHGFLIYKFSQCSFSKPVFPYLNPRKCTVPMTLCSPSS [rhesus TRIM5α, 332-344 = QAPGTRYTFPSFT]” was run?
A: Its enrichment is 0.977 ± 0.45.

Q: For “MASGILLNVKEEVTCPICLELLTEPLSLHCGHSFCQACITANHKKSMLYKEGERSCPVCRISYQPENIQPNRHVANIVEKLREVKLSPEEGQKVDHCARHGEKLLLFCQEDSKVICWLCERSQEHRGHHTFLMEEVAQEYHVKLQTALEMLRQKQQEAEKLEADIREEKASWKIQIDYDKTNVSADFEQLREILDWEESNELQNLEKEEEDILKSLTKSETEMVQQTQYMRELISELEHRLQGSMMDLLQGVDGIIKRIENMTLKKPKTFHKNQRRVFRAPDLKGMLDMFRELTDARRYWVDVTLAPNNISHAVIAEDKRQVSSRNPQIMYGARGTRFTFQTFVNFNYCTGVLGSQSITSGKHYWEVDVSKKSAWILGVCAGFQSDAMYNIEQNENYQPKYGYWVIGLQEGVKYSVFQDGSSHTPFAPFIVPLSVIICPDRVGVFVDYEACTVSFFNITNHGFLIYKFSQCSFSKPVFPYLNPRKCTVPMTLCSPSS [rhesus TRIM5α, 332-344 = GARGTRFTFQTFV]”, which enrichment is on record?
A: The enrichment was 1.11 ± 0.66.

Q: For “MASGILLNVKEEVTCPICLELLTEPLSLHCGHSFCQACITANHKKSMLYKEGERSCPVCRISYQPENIQPNRHVANIVEKLREVKLSPEEGQKVDHCARHGEKLLLFCQEDSKVICWLCERSQEHRGHHTFLMEEVAQEYHVKLQTALEMLRQKQQEAEKLEADIREEKASWKIQIDYDKTNVSADFEQLREILDWEESNELQNLEKEEEDILKSLTKSETEMVQQTQYMRELISELEHRLQGSMMDLLQGVDGIIKRIENMTLKKPKTFHKNQRRVFRAPDLKGMLDMFRELTDARRYWVDVTLAPNNISHAVIAEDKRQVSSRNPQIMYQAPGTRFTFQSFVNFNYCTGVLGSQSITSGKHYWEVDVSKKSAWILGVCAGFQSDAMYNIEQNENYQPKYGYWVIGLQEGVKYSVFQDGSSHTPFAPFIVPLSVIICPDRVGVFVDYEACTVSFFNITNHGFLIYKFSQCSFSKPVFPYLNPRKCTVPMTLCSPSS [rhesus TRIM5α, 332-344 = QAPGTRFTFQSFV]”, which enrichment is on record?
A: Its enrichment is 1.7 ± 1.1.

Q: How did the enrichment turn out when “MASGILLNVKEEVTCPICLELLTEPLSLHCGHSFCQACITANHKKSMLYKEGERSCPVCRISYQPENIQPNRHVANIVEKLREVKLSPEEGQKVDHCARHGEKLLLFCQEDSKVICWLCERSQEHRGHHTFLMEEVAQEYHVKLQTALEMLRQKQQEAEKLEADIREEKASWKIQIDYDKTNVSADFEQLREILDWEESNELQNLEKEEEDILKSLTKSETEMVQQTQYMRELISELEHRLQGSMMDLLQGVDGIIKRIENMTLKKPKTFHKNQRRVFRAPDLKGMLDMFRELTDARRYWVDVTLAPNNISHAVIAEDKRQVSSRNPQIMYGAPGTRFQTFTNFNYCTGVLGSQSITSGKHYWEVDVSKKSAWILGVCAGFQSDAMYNIEQNENYQPKYGYWVIGLQEGVKYSVFQDGSSHTPFAPFIVPLSVIICPDRVGVFVDYEACTVSFFNITNHGFLIYKFSQCSFSKPVFPYLNPRKCTVPMTLCSPSS [rhesus TRIM5α, 332-344 = GAPGTRFQTFT]” was run?
A: The enrichment was 0.129 ± 0.18.

Q: How did the enrichment turn out when “MASGILLNVKEEVTCPICLELLTEPLSLHCGHSFCQACITANHKKSMLYKEGERSCPVCRISYQPENIQPNRHVANIVEKLREVKLSPEEGQKVDHCARHGEKLLLFCQEDSKVICWLCERSQEHRGHHTFLMEEVAQEYHVKLQTALEMLRQKQQEAEKLEADIREEKASWKIQIDYDKTNVSADFEQLREILDWEESNELQNLEKEEEDILKSLTKSETEMVQQTQYMRELISELEHRLQGSMMDLLQGVDGIIKRIENMTLKKPKTFHKNQRRVFRAPDLKGMLDMFRELTDARRYWVDVTLAPNNISHAVIAEDKRQVSSRNPQIMYGAPGTRYPSFTNFNYCTGVLGSQSITSGKHYWEVDVSKKSAWILGVCAGFQSDAMYNIEQNENYQPKYGYWVIGLQEGVKYSVFQDGSSHTPFAPFIVPLSVIICPDRVGVFVDYEACTVSFFNITNHGFLIYKFSQCSFSKPVFPYLNPRKCTVPMTLCSPSS [rhesus TRIM5α, 332-344 = GAPGTRYPSFT]” was run?
A: Its enrichment is 2.57 ± 3.

Q: Which enrichment does the source give for “MASGILLNVKEEVTCPICLELLTEPLSLHCGHSFCQACITANHKKSMLYKEGERSCPVCRISYQPENIQPNRHVANIVEKLREVKLSPEEGQKVDHCARHGEKLLLFCQEDSKVICWLCERSQEHRGHHTFLMEEVAQEYHVKLQTALEMLRQKQQEAEKLEADIREEKASWKIQIDYDKTNVSADFEQLREILDWEESNELQNLEKEEEDILKSLTKSETEMVQQTQYMRELISELEHRLQGSMMDLLQGVDGIIKRIENMTLKKPKTFHKNQRRVFRAPDLKGMLDMFRELTDARRYWVDVTLAPNNISHAVIAEDKRQVSSRNPQIMYQAPGTRFTFPTFVNFNYCTGVLGSQSITSGKHYWEVDVSKKSAWILGVCAGFQSDAMYNIEQNENYQPKYGYWVIGLQEGVKYSVFQDGSSHTPFAPFIVPLSVIICPDRVGVFVDYEACTVSFFNITNHGFLIYKFSQCSFSKPVFPYLNPRKCTVPMTLCSPSS [rhesus TRIM5α, 332-344 = QAPGTRFTFPTFV]” here?
A: The enrichment was 1.34 ± 0.88.

Q: How did the enrichment turn out when “MASGILLNVKEEVTCPICLELLTEPLSLHCGHSFCQACITANHKKSMLYKEGERSCPVCRISYQPENIQPNRHVANIVEKLREVKLSPEEGQKVDHCARHGEKLLLFCQEDSKVICWLCERSQEHRGHHTFLMEEVAQEYHVKLQTALEMLRQKQQEAEKLEADIREEKASWKIQIDYDKTNVSADFEQLREILDWEESNELQNLEKEEEDILKSLTKSETEMVQQTQYMRELISELEHRLQGSMMDLLQGVDGIIKRIENMTLKKPKTFHKNQRRVFRAPDLKGMLDMFRELTDARRYWVDVTLAPNNISHAVIAEDKRQVSSRNPQIMYQARGTLFTFQTLVNFNYCTGVLGSQSITSGKHYWEVDVSKKSAWILGVCAGFQSDAMYNIEQNENYQPKYGYWVIGLQEGVKYSVFQDGSSHTPFAPFIVPLSVIICPDRVGVFVDYEACTVSFFNITNHGFLIYKFSQCSFSKPVFPYLNPRKCTVPMTLCSPSS [rhesus TRIM5α, 332-344 = QARGTLFTFQTLV]” was run?
A: Its enrichment is 1.17 ± 0.54.

Q: For “MASGILLNVKEEVTCPICLELLTEPLSLHCGHSFCQACITANHKKSMLYKEGERSCPVCRISYQPENIQPNRHVANIVEKLREVKLSPEEGQKVDHCARHGEKLLLFCQEDSKVICWLCERSQEHRGHHTFLMEEVAQEYHVKLQTALEMLRQKQQEAEKLEADIREEKASWKIQIDYDKTNVSADFEQLREILDWEESNELQNLEKEEEDILKSLTKSETEMVQQTQYMRELISELEHRLQGSMMDLLQGVDGIIKRIENMTLKKPKTFHKNQRRVFRAPDLKGMLDMFRELTDARRYWVDVTLAPNNISHAVIAEDKRQVSSRNPQIMYGAPGTRFTFQSFTNFNYCTGVLGSQSITSGKHYWEVDVSKKSAWILGVCAGFQSDAMYNIEQNENYQPKYGYWVIGLQEGVKYSVFQDGSSHTPFAPFIVPLSVIICPDRVGVFVDYEACTVSFFNITNHGFLIYKFSQCSFSKPVFPYLNPRKCTVPMTLCSPSS [rhesus TRIM5α, 332-344 = GAPGTRFTFQSFT]”, which enrichment is on record?
A: Its enrichment is 0.747 ± 0.04.

Q: Which enrichment does the source give for “MASGILLNVKEEVTCPICLELLTEPLSLHCGHSFCQACITANHKKSMLYKEGERSCPVCRISYQPENIQPNRHVANIVEKLREVKLSPEEGQKVDHCARHGEKLLLFCQEDSKVICWLCERSQEHRGHHTFLMEEVAQEYHVKLQTALEMLRQKQQEAEKLEADIREEKASWKIQIDYDKTNVSADFEQLREILDWEESNELQNLEKEEEDILKSLTKSETEMVQQTQYMRELISELEHRLQGSMMDLLQGVDGIIKRIENMTLKKPKTFHKNQRRVFRAPDLKGMLDMFRELTDARRYWVDVTLAPNNISHAVIAEDKRQVSSRNPQIMYGAPGTRFQSLTNFNYCTGVLGSQSITSGKHYWEVDVSKKSAWILGVCAGFQSDAMYNIEQNENYQPKYGYWVIGLQEGVKYSVFQDGSSHTPFAPFIVPLSVIICPDRVGVFVDYEACTVSFFNITNHGFLIYKFSQCSFSKPVFPYLNPRKCTVPMTLCSPSS [rhesus TRIM5α, 332-344 = GAPGTRFQSLT]” here?
A: The enrichment was 3.13 ± 2.8.

Q: Which enrichment does the source give for “MASGILLNVKEEVTCPICLELLTEPLSLHCGHSFCQACITANHKKSMLYKEGERSCPVCRISYQPENIQPNRHVANIVEKLREVKLSPEEGQKVDHCARHGEKLLLFCQEDSKVICWLCERSQEHRGHHTFLMEEVAQEYHVKLQTALEMLRQKQQEAEKLEADIREEKASWKIQIDYDKTNVSADFEQLREILDWEESNELQNLEKEEEDILKSLTKSETEMVQQTQYMRELISELEHRLQGSMMDLLQGVDGIIKRIENMTLKKPKTFHKNQRRVFRAPDLKGMLDMFRELTDARRYWVDVTLAPNNISHAVIAEDKRQVSSRNPQIMYGARGTLFTFQSFTNFNYCTGVLGSQSITSGKHYWEVDVSKKSAWILGVCAGFQSDAMYNIEQNENYQPKYGYWVIGLQEGVKYSVFQDGSSHTPFAPFIVPLSVIICPDRVGVFVDYEACTVSFFNITNHGFLIYKFSQCSFSKPVFPYLNPRKCTVPMTLCSPSS [rhesus TRIM5α, 332-344 = GARGTLFTFQSFT]” here?
A: Its enrichment is 1.11 ± 0.09.

Q: “MASGILLNVKEEVTCPICLELLTEPLSLHCGHSFCQACITANHKKSMLYKEGERSCPVCRISYQPENIQPNRHVANIVEKLREVKLSPEEGQKVDHCARHGEKLLLFCQEDSKVICWLCERSQEHRGHHTFLMEEVAQEYHVKLQTALEMLRQKQQEAEKLEADIREEKASWKIQIDYDKTNVSADFEQLREILDWEESNELQNLEKEEEDILKSLTKSETEMVQQTQYMRELISELEHRLQGSMMDLLQGVDGIIKRIENMTLKKPKTFHKNQRRVFRAPDLKGMLDMFRELTDARRYWVDVTLAPNNISHAVIAEDKRQVSSRNPQIMYQAPGTRYTFQTFVNFNYCTGVLGSQSITSGKHYWEVDVSKKSAWILGVCAGFQSDAMYNIEQNENYQPKYGYWVIGLQEGVKYSVFQDGSSHTPFAPFIVPLSVIICPDRVGVFVDYEACTVSFFNITNHGFLIYKFSQCSFSKPVFPYLNPRKCTVPMTLCSPSS [rhesus TRIM5α, 332-344 = QAPGTRYTFQTFV]” was tested. Which enrichment did it give?
A: The enrichment was 8.93 ± 11.
